# Out of some 48,000 compounds screened, about 120 (0.25%) were called active. About 4% were inconclusive and are not listed. The call rests on the fitted dose curve; in most records, active means well fitted activation curve with a large enough effect; inconclusive means small, poorly fitted or top-dose-only effect, or another doubt; inactive means no such curve, though single readings can be large or run the other way. This is one part of the list.
# Test: Primary qHTS for Identification of Small Molecule Activators of Huntingtin-Antisense Promoter Activity; further: nearly all actives have a fitted effect of over 55% in size
# Conditions: HEK293 HTT-AS promoter firefly luciferase reporter, 24 h; series mostly up to 57.5 µM; activity change, positive = activation: at the top concentration
# Summary of the method: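 Quantitative HTS used concentration series of up to 57.5 uM final on HEK293 luciferase reporter cells, 24 h at 37 degrees C. Readout was Dual-Glo firefly luminescence.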
row,SMILES,"activity change, positive = activation"
1,CC1CCCN(C(=O)CSc2c3c(nc4cc(Cl)ccc24)CCCC3)C1 (stereo not given),inactive: -38.5%
2,CCc1ccc(NC(=O)CSc2nc(=O)n(Cc3ccccn3)c3c2CCC3)cc1,inactive: -35.7%
3,O=C(Nc1nnc(S(=O)(=O)N2CCCc3ccccc32)s1)c1cccc(Cl)c1,inactive: -91.3%
4,COc1cccc(C2C(C(=O)Nc3ccc(C)cc3C)=C(C)Nc3c(C(=O)Nc4ccccc4)cnn32)c1 (stereo not given),inactive: -20.1%
5,CC(C)OC(=O)[C@H](C)N[P@](=O)(OC[C@H]1O[C@@H](n2ccc(=O)[nH]c2=O)[C@](C)(F)[C@H]1O)Oc1ccccc1,inactive: -10.5%
6,NS(=O)(=O)c1cc(C(=O)O)c(NCc2ccco2)cc1Cl,inactive
7,COc1ccc(NC(=O)c2cc(S(=O)(=O)N3CCOCC3)ccc2OC)cc1,inactive: 10.7%
8,CCn1nnc2c(N3CCOCC3)nc(-c3ccc(NC(=O)Nc4ccc(C(=O)N5CCN(C)CC5)cc4)cc3)nc21,inactive: -22.6%
9,CCc1cccc(C)c1NS(=O)(=O)c1c(C(=O)N2CCC(C)CC2)c(C)n(C)c1C,inactive: -23.6%
10,Oc1ccc(Cl)cc1Cc1cc(Cl)ccc1O,inactive: -94.1%
11,COc1ccc(S(=O)(=O)N2CCC(C(=O)Nc3ccc(Oc4ccccc4)cc3)CC2)cc1,inactive: -18%
12,COc1cccc(-n2c(=O)c3sc4ccccc4c3n(CC(=O)NC3CCCCC3)c2=O)c1,inactive: -3.85%
13,Cc1c(NC(=O)c2ccc(-c3cccc([N+](=O)[O-])c3)o2)cccc1-c1nc2cc(Cl)ccc2o1,inactive: 22.3%
14,Cn1c(=O)oc2cc(S(=O)(=O)NCCC(=O)Nc3ccc(F)cc3F)ccc21,inactive: 17.4%
15,CCOC(=O)c1cc2c(=O)n3ccccc3nc2n(CCOC)c1=NC(=O)c1c(-c2ccccc2Cl)noc1C,inactive: 5.06%
16,Cc1cc(OCC(=O)Nc2ncn[nH]2)ccc1Cl,inactive: 4.21%
17,Cc1ccc(S(=O)(=O)N(CC(=O)Nc2ccc3c(c2)OCO3)c2cc(Cl)cc(Cl)c2)cc1,"inactive: 13.9% [at 11.5 µM, percent change from vehicle, -100% = no light]"
18,CCN(CC)S(=O)(=O)c1ccc(OC)c(-n2cnnn2)c1,inactive: 2.69%
19,O=C(NCCC1=CCCCC1)c1ccc2c(c1)N(Cc1cccc(Cl)c1)C(=O)c1ccccc1S2=O (stereo not given),inactive: -0.841%
20,CCCCC(=O)NC1CC(=O)N(c2ccc3c(c2)OCCO3)C1 (stereo not given),inactive: -14.5%
21,COc1ccc(CNC(=O)Cn2c(=O)nc(-c3ccccc3)c3ccccc32)cc1OC,inactive: -67.9%
22,CC(C)CCNC(=O)Cc1ccc(NC(=O)N2CCCCc3ccccc32)cc1,inactive: -0.61%
23,CC1=C(c2ccc(C)c(C)c2)S(=O)(=O)NC1=NCc1ccccc1Cl,inactive: -2.91%
24,Cc1cc(C)c(NC(=O)c2sc3nc(C)cc(C)c3c2NC(=O)c2ccccc2)c(C)c1,inactive: -12.6%
25,CCOC(=O)c1c(C)[nH]c(C)c1S(=O)(=O)N1CCC(C(=O)Nc2cc(Cl)ccc2OC)CC1,inactive: -8.26%
26,CCOc1ccc(CCNC(=O)c2cn(C)c3ccc(S(=O)(=O)N4CCCCC4)cc3c2=O)cc1OCC,inactive: 5.78%
27,COc1ccccc1C(=O)Nc1cccc(C(=O)OCc2cc(=O)n3cc(C)sc3n2)c1,inactive: -10.9%
28,CCc1nc2nc(C)c(NS(=O)(=O)c3ccc(C(C)(C)C)cc3)c(=O)n2[nH]1,inactive: -13.3%

row,SMILES,"activity change, positive = activation"
1,O=C(CCn1cnc2ccccc2c1=O)NCc1ccccc1Cl,"inactive: 9.09% [at 11.5 µM, percent change from vehicle, -100% = no light]"
2,O=C(CNC(=O)c1ccc(F)cc1)OCc1cc(=O)n2nc(C3CC3)sc2n1,inactive: -13.1%
3,COc1ccc(-c2nc(C)c(CCNS(=O)(=O)c3cc(Cl)ccc3Cl)s2)cc1,inactive: -23.6%
4,CCOC(=O)c1sc2ncn(CC(=O)Nc3ccc(OCC)cc3)c(=O)c2c1C,inactive: -3.22%
5,CCc1nn2c(=O)cc(COC(=O)COc3ccc(OC)cc3)nc2s1,inactive: 3.07%
6,CCC(=O)N1c2ccccc2CC1C(=O)NCCc1ccc(OC)c(OC)c1 (stereo not given),inactive: -16.1%
7,Cc1c(C(=O)Nc2cccc(C(F)(F)F)c2)oc2ccc3c(c12)C(=O)CC(C)(C)O3,inactive: 23.6%
8,Cc1nc2cccnc2n1-c1cccc(C(=O)N2CCN(c3cccc(Cl)c3)CC2)c1,inactive: -31.3%
9,COc1ccc(-c2nnc(SCC(=O)NCCc3ccc(OC)c(OC)c3)nc2-c2ccc(OC)cc2)cc1,"inactive: 2.66% [at 11.5 µM, percent change from vehicle, -100% = no light]"
10,Cc1ccc(C)c(N2CCN(S(=O)(=O)c3cc(-c4cc(C)no4)ccc3C)CC2)c1,inactive: -28.8%
11,CSc1ccc(CCNC(=O)c2cc(C)nc3c2c(C)nn3-c2ccccc2)cc1,inactive: -17.7%
12,Cc1ccc(-n2nc(CO)c(C(=O)NCCCCc3ccccc3)n2)cc1C,inactive: -11.9%
13,CC(=O)N1CCN(c2ccc(OCc3nn(C)c(C)c3-c3cccc4c(CCCOc5cc(C)c(Cl)c(C)c5)c(C(=O)O)n(Cc5cccnc5)c34)cc2)CC1,inactive: -21.8%
14,Cc1cc(C)c(NC(=O)Cn2nc(-c3ccncc3)ccc2=O)c(C)c1,inactive: -2.99%
15,CCCn1c(=O)n(-c2ccccc2Cl)c(=O)c2sc3ccccc3c21,inactive: -3.18%
16,O=C(CN1C(=O)C(c2ccc(F)cc2)=NC12CCCCCC2)Nc1ccccc1Cl,inactive: -21.4%
17,CC1=Nc2cc(C(=O)NCc3ccccc3Cl)ccc2Sc2c(C)ccc(C)c21,inactive: -40.7%
18,COc1ccc(-c2ccc3c(N)c(C(=O)Nc4ccc(C(F)(F)F)cc4)sc3n2)cc1OC,inactive: -45.4%
19,Cc1nc2c(-c3ccc(F)cc3)c(C)nn2c(C)c1CCC(=O)N1CCN(c2ccccc2)CC1,inactive: -13.6%
20,CCCCn1c(SCC(=O)c2ccccc2)nc2c(sc3ccccc32)c1=O,inactive: 8.41%
21,CCN(C(=O)Cn1nnc2sc3c(c2c1=O)CCC(C(C)(C)C)C3)c1cccc(C)c1 (stereo not given),inactive: -21.1%
22,CCc1ccc(CNC(=O)c2nn(-c3ccc(C)cc3)c(=O)c3c2c2ccccc2n3C)cc1,inactive: -25%
23,CC(=O)c1ccc(N2CCN(C(=O)C3CCCN(S(=O)(=O)c4ccc(Br)s4)C3)CC2)cc1 (stereo not given),inactive: -36.7%
24,COc1cc(CCC(=O)NCc2ccc3c(c2)CCN3C(=O)c2ccccc2)cc(OC)c1OC,inactive: -25.9%
25,Cc1ccc(-n2nc3ccc(NC(=O)COc4ccccc4C)cc3n2)cc1,inactive: 16.9%
26,CCC1CN(S(=O)(=O)c2cc(-c3cc(C)no3)ccc2C)c2cc(C)ccc2O1 (stereo not given),inactive: -1.74%
27,CCCN(CCC)CCCNC(=O)C1CCN(S(=O)(=O)CC)CC1,inactive: 1.7%

# — PubChem BioAssay AID1508624 (National Center for Advancing Translational Sciences (NCATS), 2021)
